Data taken from PubChem BioAssay.
The inconclusive results got no clear call from the source; some entries with a clear call stand among them for comparison. Active and inactive are the calls of the source.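 Rule for the calls: active = cell viability at or below a set limit in both duplicate runs, the limit being the all-compound median minus 4 SD (cut at about 23% in these data, passing the limit was not always enough); inconclusive = no clear call, values can overlap the other calls; inactive = the rest.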

experiment: viability of HCT116 without oncogenic beta-catenin – human colon tumor cells, pilot screen (AID 823); settings: HCT116 beta-catenin knockout viability, CellTiter-Glo, 60 h; at 10 µM; stronger effect = lower value;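 note: 0% = wells killed by 20 µM Hyamine and 100% = untreated DMSO cell wells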

Compound	viability
CCCc1[nH]nc2c1C(C1CC=CCC1)C(C#N)=C(N)O2 (stereo unspecified)	active: 11.9%
O=C(Nc1nnc(-c2cccs2)o1)c1cccc(F)c1	inconclusive: 18.1%
Cc1[nH]nc2c1C(C1CC=CCC1)C(C#N)=C(N)O2 (stereo unspecified)	active: 17.6%
COc1ccc(N(CC(=O)NCc2ccco2)S(C)(=O)=O)cc1Cl	inconclusive: 104%
CCOc1cc(OCC)cc(C(=O)Nc2cccnc2)c1	inactive: 100%
COC(=O)C(CC(C)C)Oc1ccc2c(C)cc(=O)oc2c1 (stereo unspecified)	inconclusive: 101%
Cc1cc(NC(=O)COC(=O)C2CCN(S(=O)(=O)c3ccc(Cl)cc3)CC2)no1	inconclusive: 101%
COc1ccc(Nc2oc(-c3ccccc3Cl)nc2C#N)cc1	active: 6.01%
COc1cc(C(=O)N2CCN(c3ccc(C)cc3C)CC2)cc(OC)c1OC	inconclusive: 17.5%
Cc1ccc(S(=O)(=O)c2nc(-c3cccs3)oc2SCC(N)=O)cc1	inactive: 106%
CSc1nc(N2CCN(CCO)CC2)c2sc3nc(-c4ccco4)c4c(c3c2n1)CCC4	inconclusive: 42%
Cc1ccc(-c2nc(S(=O)(=O)c3ccc(F)cc3)c(SCC(=O)NCC3CCCO3)o2)cc1 (stereo unspecified)	inactive: 93.6%
Clc1ss/c(=N\c2ccccn2)c1Cl	inconclusive: 96%
O/N=C1\CCCc2oc3c(c21)CCCC3	inconclusive: 105%
O=C(Nc1ccc2c(c1)OCCO2)c1ccc(NC(=O)C2CCCO2)cc1 (stereo unspecified)	inactive: 72.7%
CC(C)Sc1nc(N)c2c3c(sc2n1)CN(C)CC3	inactive: 101%
